Assay results from PubChem BioAssay AID1347417 (National Center for Advancing Translational Sciences (NCATS), 2020).
Hit rate of the full screen: of about 120,000 compounds, about 5,300 (4.4%) were called active. Inconclusive means that the source gave no clear call. Such entries were picked first, then a sample of the others. The call rests on the fitted dose curve; in most records, active means well fitted inhibition curve with a large enough effect; inconclusive means small, poorly fitted or top-dose-only effect; inactive means no such curve, though single readings can be large or run the other way. Potencies of inconclusive entries are doubtful fits and often do not repeat.
Potency means the concentration at half of the fitted maximal effect; tags describe the fitted curve by direction and shape.

Assay: qHTS Primary assay for Inhibitors of Plasmodium falciparum Dd2 growth in vitro; further: nearly all actives have a fitted effect of over 65% in size;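 on activity, negative = inhibition: plate controls were DMSO vehicle for no effect and reference drug for full effect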
Settings: P. falciparum Dd2 growth, SYBR Green, 72 h; activity, negative = inhibition: at 28.9 µM (top of the series) unless noted; series mostly up to 28.9 µM
Outline: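 Readout: SYBR Green fluorescence, 485 nm excitation, 535 nm emission, after ~16 h lysis at 37C. Before that, Dd2-infected red cells (2.5% hematocrit) grew 72 h with compound, 29 uM top final concentration.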
For `CCc1ccc(NC(=O)COC(=O)CCCC2=NS(=O)(=O)c3ccccc3N2)cc1`, the “outcome” value was “inactive”.
In the case of `O=C(CCCc1ccccc1)N1CCC[C@H]1c1nc(-c2ccccc2)no1`, the Potency is reported as inconclusive: 0.0891 µM [inhibitor, full curve, poor fit].
In the case of `CCC(=O)N1CCc2cc(Br)cc(S(=O)(=O)N3CCCC(C(=O)NCc4ccc(F)cc4)C3)c21` (stereo not drawn), the Potency is reported as inconclusive: 6.31 µM [inhibitor, partial curve, poor fit].
For `Cn1cc(S(=O)(=O)N2CCCCCC2)cc1C(=O)N1CCN(c2cccc(C(F)(F)F)c2)CC1`, the Potency was inconclusive: 8.91 µM [inhibitor, single point].
For `COc1ccc(CN2CCNc3cc(-c4ccccc4)ncc3C2)cc1`, the Potency was inconclusive: 22.4 µM [inhibitor, single point].
With `O=c1c2cc(-c3cccs3)nn2ccn1CC(O)c1cccc(Cl)c1` (stereo not drawn) the Potency was inconclusive: 1.78 µM [inhibitor, partial curve, poor fit].
In the case of `COc1ccc([C@H]2C[C@@H](O)[C@@H](O)[C@@H]2N2CCCCC2)cc1`, the Potency is reported as inconclusive: 25.1 µM [inhibitor, single point].
With `O=C1CCN(C(=O)CCCc2c[nH]c3ccccc23)CCCOCCN1` the “activity, negative = inhibition” value was inactive: -21.1%.
For `O=S(=O)(c1ccc(Cl)cc1)c1nc(-c2cccc(Br)c2)oc1NCc1ccccc1`, the Potency was inconclusive: 12.6 µM [inhibitor, single point].
In the case of `Cc1cccc(OCC(=O)N2CCCN(c3cc(-c4ccc(Cl)cc4)[nH]n3)CC2)c1`, the Potency is reported as inconclusive: 2 µM [inhibitor, partial curve, poor fit].
In the case of `COc1ccc(OC)c(NC(=O)c2ccc3c(SCC(=O)O)c4c(nc3c2)CCCC4)c1`, the Potency is reported as active: 10 µM.
With `CC(C)c1nc2c(c(-c3ccc(O)cc3)n1)CN(C(=O)c1cccc(Cl)c1)CC2` the Potency was active: 4.47 µM.
For `Cc1ccc(NC(=O)N2CCc3c(c4ccccc4n3C)C2)cc1C`, the “activity, negative = inhibition” value was inactive: -17.9%.
For `COc1ccccc1C(=O)NC[C@@H]1CC[C@H]2C[C@@H]1C2(C)C`, the Potency was inconclusive: 11.2 µM [inhibitor, single point].
In the case of `O=C(Nc1ccccc1)N1C[C@@H]2OCC(=O)N(Cc3ccccn3)[C@@H]2C1`, the “activity, negative = inhibition” value is reported as inactive: -5.45% [at 44.1 µM].
In the case of `Cc1noc2c(NCCCn3ccnc3)cc(-c3cccs3)nc12`, the Potency is reported as inconclusive: 10 µM [inhibitor, partial curve, poor fit].
In the case of `COc1ccc(CNC(=O)CC[C@H]2CNC(=O)[C@@H]3[C@@H](CCN3Cc3cccc(Cl)c3)N2C)cc1`, the “outcome” value is reported as “inactive”.
For `Cn1c2ccccc2c2c(C(=O)N3CCN(c4cccc(Cl)c4)CC3)cn(C3CCCCC3)c(=O)c21`, the Potency was inconclusive: 17.8 µM [inhibitor, single point].
With `O=C1CC(c2noc(-c3cccc(OC(F)(F)F)c3)n2)CN1c1ccc(F)c(Cl)c1` (stereo not drawn) the “activity, negative = inhibition” value was inactive: 18.8%.
For `COc1cccc(N2CCN(C(=O)C3CCCN(S(=O)(=O)c4ccc5c(c4)oc(=O)n5C)C3)CC2)c1` (stereo not drawn), the Potency was inconclusive: 12.6 µM [inhibitor, single point].
With `COc1ccc(-c2noc([C@@H]3CCCN3C(=O)c3ccccn3)n2)cc1` the “activity, negative = inhibition” value was inactive: 17.7%.
With `Cc1cc2cc(C(=O)N3CC[C@@H]4[C@@H](CCC(=O)N4CCN)C3)ccc2o1` the “activity, negative = inhibition” value was inactive: -6.58%.
In the case of `CC(=O)Nc1cc(-c2cc(C(=O)NCc3cccnc3)c3c(c2)N(C)CCO3)ccn1`, the “activity, negative = inhibition” value is reported as inactive: -16.8% [at 44.1 µM].
For `Cn1c(=O)n(C)c2cc(N3CCOCC3)c(NC(=O)c3ccc(Cl)cc3)cc21`, the Potency was inconclusive: 20 µM [inhibitor, partial curve, poor fit].
In the case of `COCCN1CCNc2nc(COc3cccc(F)c3)n(Cc3ccccc3)c2C1=O`, the Potency is reported as inconclusive: 31.6 µM [inhibitor, single point].
For `CCN(CC)c1cc(C)c2cc(NC(=O)c3ccccc3Cl)ccc2n1`, the Potency was inconclusive: 17.8 µM [inhibitor, single point].
In the case of `Cc1ccc(-c2nc3c(c(SCC(=O)N(C)c4ccccc4)n2)Cc2c(CO)cnc(C)c2O3)cc1`, the Potency is reported as active: 5.62 µM.
In the case of `COc1ccc(S(=O)(=O)NCCc2nnc3ccc(SCC(=O)Nc4cc(C)cc(C)c4)nn23)cc1`, the Potency is reported as inconclusive: 17.8 µM [inhibitor, single point].
In the case of `CC(C)(C)OC(=O)N1CCC(c2c(C(=O)Nc3ccc4c(c3)OCCO4)cnn2-c2ccc(F)cc2F)CC1`, the Potency is reported as active: 3.98 µM.
With `CCOc1ccc(-c2cc3c(=O)n(CCNC(=O)c4ccc(Cl)cc4)ccn3n2)cc1` the “activity, negative = inhibition” value was inactive: -0.0636%.
In the case of `Cc1ccccc1C(=O)NC[C@@H]1CC[C@H]2C[C@@H]1C2(C)C`, the Potency is reported as inconclusive: 31.6 µM [inhibitor, single point].
With `Cc1cc(C(=O)N[C@H]2[C@H](O)[C@H](O)C[C@@H]2c2ccccc2)c(C(F)(F)F)o1` the Potency was inconclusive: 31.6 µM [inhibitor, single point].
In the case of `Cn1cc(CN[C@H]2[C@H](O)[C@H](O)C[C@@H]2c2ccccc2)c2ccccc21`, the Potency is reported as inconclusive: 7.94 µM [inhibitor, partial curve, poor fit].
In the case of `CC(=O)c1cccc(NC(=O)CN2C(=O)NC3(CCC(C)CC3)C2=O)c1` (stereo not drawn), the “outcome” value is reported as “inactive”.
With `Cc1noc(-c2cn(C3CCN(C(=O)c4ccccc4)C3)nn2)n1` (stereo not drawn) the “activity, negative = inhibition” value was inactive: 12.1%.
For `O=C(Cn1nc2c(cc1=O)CCCCC2)N[C@@H](C(=O)O)c1ccccc1`, the “activity, negative = inhibition” value was inactive: 2.01%.
In the case of `COc1ccc(Cl)cc1Nc1ncncc1-c1nc(-c2ccccc2)no1`, the Potency is reported as inconclusive: 1.58 µM [inhibitor, partial curve, poor fit].
In the case of `COCCN1C(=O)c2cccn2CC1CNC(=O)c1ccccc1OC` (stereo not drawn), the “activity, negative = inhibition” value is reported as inactive: -17.9%.
For `O=C(Cc1cccc(F)c1)N1CCCC(c2noc(COc3ccccc3)n2)C1` (stereo not drawn), the Potency was inconclusive: 7.94 µM [inhibitor, single point].
In the case of `CCS(=O)(=O)Nc1ccc(C)n(CC(=O)NC(C)c2ccccc2)c1=O` (stereo not drawn), the Potency is reported as inconclusive: 0.398 µM [inhibitor, partial curve, poor fit].
For `COc1ccc(C(=O)N[C@@H]2CCC[C@@H]2C(=O)NCCN(C)C)cc1`, the “activity, negative = inhibition” value was inactive: 4.09%.
With `CCC(C(=O)Nc1ccc(C(C)=O)cc1)n1cnc2nc3c(cc2c1=O)CCCC3` (stereo not drawn) the Potency was active: 10 µM.
In the case of `O=C(c1cc(C2CC2)nc2c1c(C1CCCN1)nn2-c1ccccc1)N1CCC(F)CC1` (stereo not drawn), the Potency is reported as inconclusive: 11.2 µM [inhibitor, single point].
With `CC(C)NC(=O)C[C@@H]1O[C@H](CNC(=O)Nc2ccccc2)[C@@H](O)[C@H]1O` the “activity, negative = inhibition” value was inactive: 10% [at 44.1 µM].
For `Cc1ccc(C)c(Cn2ccn3nc(-c4ccc(F)cc4)c(CO)c3c2=O)c1`, the Potency was inconclusive: 1.78 µM [inhibitor, single point].
In the case of `Cc1noc(C)c1CC(=O)N1CCCC(c2noc(COc3ccccc3)n2)C1` (stereo not drawn), the “activity, negative = inhibition” value is reported as inactive: -10.2%.
With `O=C(Nc1cnc(-c2cccc(Cl)c2)nc1)c1ccc(F)cc1` the Potency was inconclusive: 3.98 µM [inhibitor, single point].
With `COCCOC1CCN(C(=O)Cc2cccs2)CC1` the “activity, negative = inhibition” value was inactive: 30%.
In the case of `CCOc1ccc(CN2CCc3nc(N4CCN(c5ncccn5)CC4)ncc3C2)cc1OC`, the Potency is reported as active: 7.94 µM.
With `COC(=O)C1=C(C)N=C2SCCC(=O)N2C1c1ccc(OCc2ccccc2)c(OC)c1` (stereo not drawn) the Potency was inconclusive: 17.8 µM [inhibitor, single point].
For `O=C(O)c1ccc(-c2ncccn2)cc1`, the activity, negative = inhibition was inconclusive: -60.7% [inhibitor] [at 44.1 µM].
For `CCOc1ccc(N2C(=O)CS(=O)(=O)C23C(=O)N(Cc2cccc(Cl)c2)c2ccccc23)cc1` (stereo not drawn), the Potency was inconclusive: 17.8 µM [inhibitor, single point].
For `CC(C)(C)OC(=O)N1CCC(c2c(C(=O)NCCc3ccsc3)cnn2-c2ccccc2Cl)CC1`, the “activity, negative = inhibition” value was inactive: -5.8%.
With `O=c1cc(CCn2cccn2)nc(-c2ccc(CN3CCC[C@@H](O)C3)cc2)[nH]1` the “activity, negative = inhibition” value was inactive: -11.9%.
In the case of `O=C(Cc1ccc(Br)cc1)N1CCCN(C(=O)C2CC2)c2ccccc21`, the “outcome” value is reported as “inactive”.
For `CC(C)(C)CN1CCC2(CN[S+](=O)([O-])c3cccnc3O2)C1` (stereo not drawn), the activity, negative = inhibition was inconclusive: -76.6% [inhibitor].
With `CC(C)c1nc2c(c(-c3ccc(Cl)cc3)n1)CN([S+](=O)([O-])c1cccs1)CC2` the “outcome” value was “inactive”.
For `O=C1CCCCCN1C1CCN(Cc2ccccc2C(F)(F)F)CC1`, the Potency was inconclusive: 7.08 µM [inhibitor, partial curve, poor fit].
With `COc1ccc(CN(C)C(=O)C2(c3ccc(Cl)cc3)CCOCC2)cc1` the activity, negative = inhibition was inconclusive: -60% [inhibitor].
With `COc1ccc(N2CCN(C(=O)c3ccc4c(c3)N(Cc3cccc(Cl)c3)C(=O)c3ccccc3S4(=O)=O)CC2)cc1` the “activity, negative = inhibition” value was inactive: -4.86%.
For `CCSCCNC(=O)c1c(C)noc1-c1ccc(C(C)(C)C)cc1`, the Potency was inconclusive: 0.794 µM [inhibitor, full curve, poor fit].
With `O=C(CCc1ccccc1)Nc1ccc([C@@H](O)[C@H]2COCC(=O)N2Cc2ccncc2)cc1` the “outcome” value was “inactive”.
With `COCC(=O)NCCC1CCN(C(=O)Nc2cc(F)ccc2F)CC1` the “activity, negative = inhibition” value was inactive: -5.91%.
With `CCc1[nH]c2c(CNC(=O)c3cnc(C)nc3)cc(C)cc2c1C` the Potency was inconclusive: 10 µM [inhibitor, single point].
For `CC1(C)[C@H](Cc2cc(COc3ccccc3)on2)C[C@@H]1NC(=O)c1cccs1`, the Potency was inconclusive: 2.24 µM [inhibitor, full curve, poor fit].
With `CCOc1ccc2c(n1)CCN(C(=O)c1cc(OC)cc(OC)c1)C2` the Potency was inconclusive: 3.16 µM [inhibitor, full curve, poor fit].
For `COc1ccc(C)cc1NC(=O)C(=O)NCC(c1cccnc1)N1CCN(c2ccccc2F)CC1` (stereo not drawn), the Potency was inconclusive: 17.8 µM [inhibitor, single point].
For `COCC(=O)NC1CCC12CCN(Cc1ccc(F)cc1F)CC2` (stereo not drawn), the Potency was inconclusive: 10 µM [inhibitor, single point].
